Assay results published in patent US20240002332A1, “Small Molecule Inhibitors of SARS-CoV-2 Infections” (priority 2020, published 2024).

System: SARS-CoV-2
Conditions: 30 mpk BID, 60 mpk BID, 60 mpk SID; days 2 and 4

O=C(Nc1ccc([N+](=O)[O-])cc1Cl)c1cc(Cl)ccc1OC(=O)N1CCNCC1 [Compound P3, 4-chloro-2-((2-chloro-4-nitrophenyl)carbamoyl)phenyl piperazine-1-carboxylate]
subgenomic SARS-CoV-2 RNA in oropharyngeal swabs: dose dependent decrease in the subgenomic RNA was seen and was comparable to the EIDD group
